# This is one part of the list.
# B1: PhoQ; a variant is named by its letters at X, in order, P23837 (parent)
# chain: MKKLLRLFFPLSLRVRFLLATAAVVLVLSLAYGMVALIGYSVSFDKTTFRLLRGESNLFYTLAKWENNKLHVELPENIDKQSPTMTLIYDENGQLLWAQRDVPWLMKMIQPDWLKSNGFHEIEADVNDTSLLLSGDHSIQQQLQEVREDDDDAEMTHSVAVNVYPATSRMPKLTIVVVDTIPVELKSSYMVWSWFIYVLSANLLLVIPLLWVAAWWSLRPIEALAKEVRELEEHNRELLNPATTRELTSLVRNLNRLLKSERERYDKYRTTLTDLTHSLKTPLXXLQXXLRSLRSEKMSVSDAEPVMLEQISRISQQIGYYLHRASMRGGTLLSRELHPVAPLLDNLTSALNKVYQRKGVNISLDISPEISFVGEQNDFVEVMGNVLDNACKYCLEFVEISARQTDEHLYIVVEDDGPGIPLSKREVIFDRGQRVDTLRPGQGVGLAVAREITEQYEGKIVAGESMLGGARMEVIFGRQHSAPKDE
# Variants of: B1
# Assay: enrichment ratio after two sorts for PhoP signalling (ratio (wild type AVST 3.29)); higher = more functional
# Details: with PhoP (E. coli)
row,Variant,enrichment ratio
1,RRSV,≤ 0.25
2,HKCT,≤ 0.25
3,ANWY,≤ 0.25
4,PALE,≤ 0.25
5,MVRC,≤ 0.25
6,RRRN,≤ 0.25
7,AATW,≤ 0.25
8,AEKV,≤ 0.25
9,EALS,≤ 0.25
10,SSIS,11.9
11,LKHN,≤ 0.25
12,PNPP,≤ 0.25
13,HPSD,0.266
14,GNRQ,≤ 0.25
15,FVGP,≤ 0.25
16,NMLL,≤ 0.25
17,FWGN,≤ 0.25
18,KQVR,≤ 0.25
19,ELRQ,≤ 0.25
20,NPHD,≤ 0.25
21,RIRK,≤ 0.25
22,KDFN,≤ 0.25
23,LRCE,≤ 0.25
24,NWGN,≤ 0.25
25,FVER,≤ 0.25

row,Variant,enrichment ratio
1,VIAY,≤ 0.25
2,PGHV,≤ 0.25
3,KCGV,≤ 0.25
4,NLFY,≤ 0.25
5,NDCP,≤ 0.25
6,QILD,≤ 0.25
7,TGQR,≤ 0.25
8,PERF,≤ 0.25
9,YPMQ,≤ 0.25
10,KMLR,≤ 0.25
11,LFHI,≤ 0.25
12,EQSR,≤ 0.25
13,LEAC,≤ 0.25
14,GIVY,≤ 0.25
15,CQSG,≤ 0.25
16,HPAA,≤ 0.25
17,KREG,≤ 0.25
18,YHMI,≤ 0.25
19,LQPH,≤ 0.25
20,PCIQ,≤ 0.25
21,ATFH,≤ 0.25
22,RWLP,≤ 0.25
23,LMLL,≤ 0.25
24,DWWG,≤ 0.25
25,AMGM,0.276

row,Variant,enrichment ratio
1,GIFN,≤ 0.25
2,WSQY,≤ 0.25
3,VYEY,≤ 0.25
4,ENAC,≤ 0.25
5,GLNC,≤ 0.25
6,LCTD,≤ 0.25
7,QYYG,≤ 0.25
8,DTTD,≤ 0.25
9,IIYD,≤ 0.25
10,FIHF,≤ 0.25
11,TLTG,4.13
12,VILA,≤ 0.25
13,SVAL,10.4
14,YTFW,≤ 0.25
15,SCNC,≤ 0.25
16,RHFC,≤ 0.25
17,TFIY,≤ 0.25
18,FGIN,≤ 0.25
19,EYRR,≤ 0.25
20,LYIN,≤ 0.25
21,TWID,≤ 0.25
22,DEHS,≤ 0.25
23,THGA,≤ 0.25
24,DFCD,≤ 0.25
25,LINY,≤ 0.25

row,Variant,enrichment ratio
1,TTMV,28.9
2,NKPY,≤ 0.25
3,QEID,≤ 0.25
4,VGEG,≤ 0.25
5,IAIE,≤ 0.25
6,SFNA,≤ 0.25
7,VRNI,≤ 0.25
8,PIEV,≤ 0.25
9,VATQ,≤ 0.25
10,FVQN,≤ 0.25
11,INPW,≤ 0.25
12,YAKI,≤ 0.25
13,FYAA,≤ 0.25
14,HICP,≤ 0.25
15,YYIW,≤ 0.25
16,TVFA,≤ 0.25
17,HAAP,≤ 0.25
18,NLQV,≤ 0.25
19,SCWQ,≤ 0.25
20,SPHH,≤ 0.25
21,WPNF,≤ 0.25
22,QEGM,10.1
23,CWTL,≤ 0.25
24,MPHI,≤ 0.25
25,TGVK,≤ 0.25

row,Variant,enrichment ratio
1,PSWV,≤ 0.25
2,KQMN,≤ 0.25
3,IYRY,≤ 0.25
4,TNVG,≤ 0.25
5,SNRQ,≤ 0.25
6,MNLG,3.31
7,IELG,7.08
8,GHRQ,≤ 0.25
9,KYIV,≤ 0.25
10,CASP,≤ 0.25
11,PKYM,≤ 0.25
12,CLFY,≤ 0.25
13,HFQP,≤ 0.25
14,SSSV,10.9
15,RLED,≤ 0.25
16,TQAN,7.3
17,PCFD,≤ 0.25
18,EDSL,≤ 0.25
19,DLVK,≤ 0.25
20,HLGK,≤ 0.25
21,RGNH,≤ 0.25
22,VYMG,≤ 0.25
23,PNAC,≤ 0.25
24,PFVE,≤ 0.25
25,VVNP,≤ 0.25

row,Variant,enrichment ratio
1,LSYF,0.698
2,PHGP,≤ 0.25
3,TEAD,16.8
4,VHSE,≤ 0.25
5,HMCI,≤ 0.25
6,LTSR,≤ 0.25
7,WIYN,≤ 0.25
8,LKVM,≤ 0.25
9,HKHI,≤ 0.25
10,FCVP,≤ 0.25
11,LNVA,≤ 0.25
12,LHLY,≤ 0.25
13,WKYM,≤ 0.25
14,NWCN,≤ 0.25
15,MKQC,≤ 0.25
16,HQNH,≤ 0.25
17,LHSV,≤ 0.25
18,KASE,≤ 0.25
19,IMSV,≤ 0.25
20,SNDM,≤ 0.25
21,MNNY,15.3
22,APPG,≤ 0.25
23,LLYM,≤ 0.25
24,ALPI,≤ 0.25
25,VFDY,≤ 0.25

row,Variant,enrichment ratio
1,VNEM,≤ 0.25
2,PMFS,≤ 0.25
3,NTLP,≤ 0.25
4,WWPP,≤ 0.25
5,EDAD,≤ 0.25
6,NHSR,≤ 0.25
7,LPLL,≤ 0.25
8,DWWF,≤ 0.25
9,PPRA,≤ 0.25
10,HPPT,≤ 0.25
11,RNDP,≤ 0.25
12,PGDN,≤ 0.25
13,LYEQ,≤ 0.25
14,TNNL,0.757
15,GLMC,≤ 0.25
16,KMNA,≤ 0.25
17,HAKN,≤ 0.25
18,IAMS,≤ 0.25
19,ILIK,≤ 0.25
20,HTLG,≤ 0.25
21,LLFD,≤ 0.25
22,KTFG,≤ 0.25
23,TPWM,≤ 0.25
24,PDMN,≤ 0.25
25,NNIY,≤ 0.25

row,Variant,enrichment ratio
1,GDED,≤ 0.25
2,TRQN,≤ 0.25
3,SDLV,7.36
4,IYLC,≤ 0.25
5,VPEF,≤ 0.25
6,DFFD,≤ 0.25
7,IRVQ,≤ 0.25
8,HQMK,≤ 0.25
9,AWPS,≤ 0.25
10,PKQY,≤ 0.25
11,GPDF,≤ 0.25
12,PEER,≤ 0.25
13,MVRA,≤ 0.25
14,LMMS,≤ 0.25
15,HCRE,≤ 0.25
16,GDWG,≤ 0.25
17,HFRI,≤ 0.25
18,DTYL,≤ 0.25
19,EFKR,≤ 0.25
20,KDGK,≤ 0.25
